Molecules are shown by their SMILES. The campaign covered roughly 150,000 compounds. About 540 (0.36%) showed an effect of 50% or more. Some of the results follow.

Broadly, the % Inhibition is the drop in the measured response relative to a control, in per cent.

In this experiment the test system is Plasmodium falciparum. Description: Primary screen in NF54 nanoGlo assay, in single point, at 2uM, 72h; a lower Z score goes with more inhibition. Format: functional, Erythrocyte. The settings on record: timepoint 72 hour.
Turning to `CCC(CC)CN1CCCn2nc(CNC(=O)N(C)C)cc2C1`, the “% Inhibition” value is -26% and the Z score was found to be 2.51.

As for `COC(CN1CC(O)CC1CO)c1ccc(Cl)cc1` (stereo not drawn), the “% Inhibition” value was 3% and the Z score is listed as -0.34.

Consider `Cc1cc(C)nc(O[C@H]2CCCN(S(=O)(=O)C3CCCCC3)C2)n1`, for which the “% Inhibition” value is 6% and the Z score was -0.81.

With `O=C(c1ccncc1Cl)N1CCCC12CCCCC2`, the “% Inhibition” value was -19% and the Z score is 1.57.

On to `Cc1oc(-c2ccc3ccccc3c2)nc1CN1[C@@H]2CC[C@H]1CNC2`, for which the “% Inhibition” value is recorded as -10% and the Z score is on record as 1.19.

With `CCn1c(CN(Cc2ccc(OC)cc2)C2CC2)nc2cc(S(=O)(=O)N3CCCCC3)ccc21`, the “% Inhibition” value is recorded as -10% and the Z score turned out to be 1.41.

As for `COCCOCc1nc([C@H]2CCN(S(=O)(=O)c3cc(C)ccc3C)C2)no1`, the “% Inhibition” value is given as -20% and the Z score came to 3.85.

For `CCCn1c(=O)c2sc(N3CCCC3)nc2n(CC(=O)NC(C)C)c1=O`, the “% Inhibition” value is reported as -7% and the Z score is reported as 0.64.

Turning to `Cc1ccc(O)c(CNc2ccc3c(c2)OCC3(C)C)n1`, the “% Inhibition” value is 39% and the Z score is recorded as -4.45.

On to `CCc1ncnc(NCC2CCCC2O)c1F` (stereo not drawn), for which the “% Inhibition” value is given as 8% and the Z score was -1.22.

In the case of `Cc1nc[nH]c1CN1C[C@H]2CC[C@@H](C1)N(C(=O)NCc1ccccc1F)C2`, the “% Inhibition” value is reported as -4% and the Z score amounted to 0.59.

Consider `CNC(=O)c1ccc(-c2ccc(C(=O)N3CCC(F)(F)CC3)cc2)o1`, for which the “% Inhibition” value is on record as -7% and the Z score came to 1.09.

For `Cc1cccc(N2C(=O)C3C(c4ccccc4)CCC(c4ccccc4)C3C2=O)c1C` (stereo not drawn), the “% Inhibition” value was -11% and the Z score worked out at 1.22.

For the compound `O=S(=O)(c1ccc(-c2nc3ccccc3s2)cc1)N1CCCCCC1`, the “% Inhibition” value is reported as -14% and the Z score worked out at 1.96.

Regarding `CCc1oc2ccccc2c1CC(=O)N1CCOC[C@H]1c1c(C)nn(C)c1C`, the “% Inhibition” value was -10% and the Z score turned out to be 2.07.

`COc1cc2c(cc1OC)CN(C(=O)CN1c3ccccc3C(C(N)=O)CC1C)CC2` (stereo not drawn): the “% Inhibition” value was -9% and the Z score is 1.05.

With `OCC1(O)CCN(Cc2ccc(C3CCCCC3)s2)CC1`, the “% Inhibition” value amounted to 8% and the Z score is given as -1.74.

Turning to `CC(C)OCCCNc1ncc(C#N)c(NCCCOC(C)C)n1`, the “% Inhibition” value stood at 12% and the Z score is on record as -2.29.

As to `CC[C@H]1CC[C@@H](C)N(C(=O)c2ccc3ncccc3c2)C1`, the “% Inhibition” value is given as -11% and the Z score came to 1.28.

As to `CN1CCC(C(=O)C(C#N)c2nc(-c3ccccc3)cs2)CC1=O` (stereo not drawn), the “% Inhibition” value was 9% and the Z score was -1.67.

Take `CC(=O)c1cccc(CN2CCN(Cc3cc(C)cc(C)c3)C(=O)C2)c1`: the “% Inhibition” value was -4% and the Z score is recorded as 0.77.

Turning to `O=C(C[C@@H]1C=CCC1)NC(C1CC1)C1CC1`, the “% Inhibition” value was determined as 27% and the Z score is -3.09.

In the case of `CC(C)Cc1nc(CNC(=O)c2coc(C3CC3)n2)no1`, the “% Inhibition” value is on record as -4% and the Z score amounted to 0.62.

Consider `COCCN(CCOc1ccccc1F)C(=O)c1nc2ncccn2n1`, for which the “% Inhibition” value is recorded as -9% and the Z score stood at 1.71.
